Test results taken from PubChem BioAssay AID894 (National Center for Advancing Translational Sciences (NCATS), 2007).
The campaign covered roughly 150,000 compounds. About 6,500 (4.3%) were called active. This list was built around the results that the source calls inconclusive (neither active nor inactive); the mix of calls is not that of the screen. The call rests on the fitted dose curve; in most records, active means well fitted inhibition curve with a large enough effect (not every such curve was filed as active); inconclusive means small, poorly fitted or top-dose-only effect, or another doubt; inactive means no such curve, though single readings can be large or run the other way. Potencies of inconclusive entries are left out as doubtful fits.

target: 15-hydroxyprostaglandin dehydrogenase [NAD(+)] (Homo sapiens) (UniProt P15428); test: qHTS Assay for Inhibitors of HPGD (15-Hydroxyprostaglandin Dehydrogenase); details: purified HPGD, NADH fluorescence kinetic, PGE2 substrate; activity change, negative = inhibition: stronger effect = lower value
In short: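 20 nM HPGD preincubated 15 min at room temperature with compound in 50 mM Tris-HCl pH 8, 0.01% Tween 20. Started with 1 mM NAD+ and 30 uM prostaglandin E2; NADH fluorescence (360/450 nm) read 5 times over 30-s intervals, last minus first.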
On the % scale 0 is the no-effect control and ±100 the full control effect; potency means the concentration at half of the fitted maximal effect; tags describe the fitted curve by direction and shape.

Sequence of UniProt P15428 (P15428 whole entry, looked up): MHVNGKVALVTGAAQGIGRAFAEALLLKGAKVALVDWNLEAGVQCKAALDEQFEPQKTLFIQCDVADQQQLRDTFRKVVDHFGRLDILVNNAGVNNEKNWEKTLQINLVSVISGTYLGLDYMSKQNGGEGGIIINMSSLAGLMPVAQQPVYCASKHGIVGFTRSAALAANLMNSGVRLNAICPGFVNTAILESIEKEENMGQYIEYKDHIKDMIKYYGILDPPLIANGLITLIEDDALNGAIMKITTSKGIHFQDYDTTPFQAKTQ

SMILES | Potency | activity change, negative = inhibition
COc1ccccc1CNC(=O)C1CC(c2c(Cl)cccc2Cl)=NO1 (centres undefined) | inconclusive [inhibitor, partial curve] | –
CCN1CCN(C(=O)c2cc3cc4ccc(OC)cc4nc3s2)CC1 | inconclusive [inhibitor, partial curve] | –
CCOC(=O)c1cc(-c2ccc3c(c2)OCO3)nc2onc(C)c12 | inconclusive [inhibitor, single point] | –
CCOC(=O)c1c(-c2ccc(Cl)cc2)c(C#N)c(=O)n(N)c1N | inconclusive [inhibitor, partial curve] | –
CNc1ccc(O)cc1 | active: 12.6 µM | –
CCOC(=O)C1=C(CSc2nc3c(cc2C#N)CCC3)OC(N)=C(C#N)C1c1ccccc1 (centres undefined) | – | inactive: -8.19%
COc1ccc(C(c2sc3nc(C)nn3c2O)N2CC(C)OC(C)C2)cc1OC (centres undefined) | – | inactive: -13.3%
COc1ccc(S(=O)(=O)N2CCOCC2)cc1OC | – | inactive: -1.7%
NS(=O)(=O)c1ccc(NC(=O)C2COc3ccccc3O2)cc1 (centres undefined) | – | inactive: -3.4%
COc1ccc(-c2nc(-c3cccs3)c(-c3cccs3)[nH]2)cc1OC | inconclusive [inhibitor, partial curve] | –
O=C(Cc1cccs1)N/N=C/C=C/c1ccco1 | inconclusive [inhibitor, single point] | –
COc1ccc(-c2cc(C(F)F)nc(-n3nc(C)cc3C)n2)cc1 | inconclusive [inhibitor, partial curve] | –
CCOC(=O)CC1C(=O)NCCN1C(=O)c1cc2c(=O)n3cccc(C)c3nc2s1 (centres undefined) | inconclusive [inhibitor, partial curve] | –
COc1ccc(/C=N/Nc2cc(C)nc(N)n2)cc1 | inconclusive [inhibitor, partial curve] | –
COc1cc(/C=C/C(=O)Nc2cc(C(F)(F)F)ccc2Cl)cc(OC)c1OC | inconclusive [inhibitor, partial curve] | –
COc1ccc(Br)cc1/C=N/NC(=O)c1nc(-c2ccccc2)n2c1CCCCC2 | – | inactive: -14%
COC(=O)C/C=C/[C@@H](C)[C@H](NC(=O)OCC(Cl)(Cl)Cl)c1cccc(OC)c1 | – | inactive: -4.06%
CCCn1nc(NC(=O)c2ccco2)c2cc3ccc(C)cc3nc21 | inconclusive [inhibitor, single point] | –
C=C(C)COc1ccc(-c2n[nH]c(C)c2-c2ccc(Br)cc2)c(O)c1 | inconclusive [inhibitor, partial curve] | –
N#Cc1c(N)oc(-c2ccco2)c1-c1ccco1 | inconclusive [inhibitor, partial curve] | –
COc1ccc(-c2cc(-c3ccc(OC)cc3)c(C#N)c(SC)n2)cc1 | inconclusive [inhibitor, single point] | –
COc1ccc(-c2nnc(SCC(=O)N3CCCC(C)C3)o2)c(OC)c1 (centres undefined) | active: 15.8 µM | –
COc1nnc(-c2ccc(N3CCOCC3)c(NC(=O)c3ccc(C)cc3)c2)c2ccccc12 | inconclusive [inhibitor, partial curve] | –
CCOC(=O)c1c(NC(C)=O)sc2c1CCC(C=O)=C2Sc1ccccc1 | active: 35.5 µM | –
Cc1ccc2nc(-c3ccc(O)cc3)c(Nc3ccc4c(c3)OCCO4)n2c1 | inconclusive [inhibitor, full curve] | –

SMILES | Potency | activity change, negative = inhibition
Cc1cccc(C=Nc2ccccc2C(N)=O)c1 | inconclusive [inhibitor, partial curve] | –
CC(Cc1cccs1)NC(=O)NC1CCCCC1 (centres undefined) | – | inactive: -17.9%
Cc1nn(-c2ccccn2)c(C)c1Oc1ccccc1O | active: 14.1 µM | –
Cc1csc(SCC(=O)NC2CCCCC2)n1 | inconclusive [inhibitor, partial curve, poor fit] | –
COC(=O)c1ccc2ncccc2c1 | – | inactive: -7.44%
Cc1ccc(-n2nc3c(c2NC(=O)/C=C\c2ccc4c(c2)OCO4)CSC3)cc1 | inconclusive [inhibitor, partial curve] | –
CCn1c(SCC(=O)Nc2nccs2)nnc1-c1ccc(S(=O)(=O)N2CCCCC2)cc1 | – | inactive: -16%
O=C(CSc1ccccc1)Nc1nnc(COc2ccc(Cl)cc2)s1 | active: 3.55 µM | –
CSc1ncccc1C(=O)NCc1ccc(C)cc1 | active: 14.1 µM | –
CCCCC(=O)/C=C/n1c(=S)oc2ccccc21 | inconclusive [inhibitor, partial curve] | –
CCCN(CC1CC1)C(=O)CSc1ncnc2sc(C)c(C)c12 | active: 28.2 µM | –
O=C(CSc1ncc(-c2ccc(F)cc2)n1Cc1ccco1)Nc1ccc2c(c1)OCO2 | – | inactive: -6.76%
Cc1ccc(-c2cc(-c3ccccc3)[nH]c(=S)c2C#N)cc1 | – | inactive: -10.5%
CCCCOC(=O)c1c(C)oc2ccc(NS(=O)(=O)c3ccc4c5c(cccc35)C(=O)N4)cc12 | inconclusive [inhibitor, partial curve] | –
CCc1nc2c(c(SC)nn2-c2ccccc2)c(N)c1C(=O)OC | inconclusive [inhibitor, partial curve] | –
Cc1ccc(C(=O)N2CCCC2)c(F)c1F | active: 10 µM | –
CCCCN(CC)CCCNC(=O)c1cc2c(=O)n(C)c3ccccc3c2n1C | inconclusive [inhibitor, partial curve] | –
Cc1cc2n(n1)C(c1ccccc1)Nc1ccccc1-2 (centres undefined) | inconclusive [inhibitor, partial curve] | –
CSc1nc(SCC(=O)NCc2ccco2)c2c3c(sc2n1)COC(C)(C)C3 | inconclusive [inhibitor, partial curve] | –
COc1ccc(OC)c(-n2c(-c3ccc(S(C)(=O)=O)cc3)cc(C=O)c2C)c1 | inconclusive [inhibitor, partial curve] | –
COc1cc2c(O)c3c(c(-c4ccc5c(c4)OCO5)c2cc1OC)C(=O)OC3 | inconclusive [inhibitor, partial curve] | –
CC(C)(C)Cc1nnc(NC(=O)c2ccc([N+](=O)[O-])cc2)s1 | – | inactive: -10.6%
Cc1cc(/C=N/NC(=O)Cn2c3ccccc3c(=O)c3ccccc32)c(C)n1-c1ccccc1 | inconclusive [inhibitor, partial curve] | –
CCc1cc2c(C)cc(=O)oc2cc1OC(=O)C1CCCN1C(=O)OC(C)(C)C (centres undefined) | inconclusive [inhibitor, partial curve] | –
Oc1ccc(Nc2nc(-c3ccc4ccccc4c3)cs2)cc1 | inconclusive [inhibitor, partial curve] | –

SMILES | Potency | activity change, negative = inhibition
O=C(O)CC[C@@H](C(=O)O)N1C(=O)c2ccccc2C1=O | inconclusive [inhibitor, single point] | –
O=C(Nc1nc2c(cc3c4c(cccc42)CC3)s1)c1ccccc1Cl | inconclusive [inhibitor, single point] | –
CCN(C(=O)c1c(-c2ccccc2)noc1C)c1ccccc1 | – | inactive: -3.65%
S=c1[nH]nc(COc2ccccc2)n1/N=C/c1ccc(Br)s1 | active: 10 µM | –
COC(=O)C1=CN(C(C)C)C=C(C(=O)OC)C1c1cc(Br)c(OC)c(OC)c1 | inconclusive [inhibitor, partial curve] | –
CCCCOC(=O)Nc1ccc(C)c(Cl)c1 | active: 15.8 µM | –
Cc1cc(NCCC(C)C)n2nc(C)c(-c3ccccc3)c2n1 | inconclusive [inhibitor, partial curve] | –
OCc1ccccc1OCCOc1ccc(Cl)c2cccnc12 | – | inactive: -11.6%
O=C(CSc1n[nH]c(-c2ccco2)n1)N1c2ccccc2Sc2ccccc21 | active: 12.6 µM | –
Clc1ccc(Cn2ncc3c(N4CCOCC4)ncnc32)cc1 | – | inactive: -3.51%
CCc1cc(N2CCOCC2)cc2c1[nH]c1ccccc12 | inconclusive [inhibitor, partial curve] | –
N#Cc1cccc(-c2ccc3ncnc(NCc4cccnc4)c3c2)c1 | inconclusive [inhibitor, partial curve] | –
O=C(CSCc1ccco1)c1ccc(Cl)s1 | active: 20 µM | –
CCOCC(=O)Nc1ccc2c(c1)OCCO2 | active: 14.1 µM | –
CCCOC(=O)c1ccc(NC(=O)COC)cc1 | inconclusive [inhibitor, single point] | –
COc1ccccc1-n1cnc2cc(C(=O)NC3CCCC3)ccc21 | active: 15.8 µM | –
Cc1cc(C(=O)CN(Cc2ccc(F)cc2)S(=O)(=O)c2ccc3c(c2)OCCO3)c(C)n1C | – | inactive: -11.9%
CC(C)CN(Cc1c(O)ccc2c3c(c(=O)oc12)CCC3)CC(C)C | inconclusive [inhibitor, partial curve] | –
COc1ccc(C2CC(C(F)(F)F)n3nc(C(=O)O)c(Br)c3N2)cc1 (centres undefined) | – | inactive: -13.1%
CCn1c(=O)[nH]c(=O)c2c(N)c(C(=O)c3ccccc3OC)sc21 | inconclusive [inhibitor, partial curve] | –
O=C(N1CCCCCC1)N1CCN(S(=O)(=O)c2ccccc2)CC1 | – | inactive: -5.87%
N/C(=N\O)c1ccc(NC(=O)c2cccs2)cc1 | inconclusive [inhibitor, partial curve] | –
Cc1ccc2nc(Cl)c(C3CC(c4cccs4)=NN3S(C)(=O)=O)cc2c1 (centres undefined) | – | inactive: -13.8%
N#CCCn1c(=S)[nH]c2ccccc21 | active: 14.1 µM | –
